Laboratory results from PubChem BioAssay AID686978 (National Center for Advancing Translational Sciences (NCATS), 2013).
Out of some 420,000 compounds screened, about 64,000 (15%) were called active. Inconclusive results, whose numbers are uncertain, are shown with a selection of clear calls. The call rests on the fitted dose curve; in most records, active means well fitted inhibition curve with a large enough effect; inconclusive means small, poorly fitted or top-dose-only effect; inactive means flat fitted curve, though single readings scatter. Potencies of inconclusive entries are left out as doubtful fits.

assay: qHTS for Inhibitors of human tyrosyl-DNA phosphodiesterase 1 (TDP1): qHTS in cells in absence of CPT; details: DT40 Tdp1-/- hTDP1 cells, no CPT, ATP luminescence, 48 h; activity change, negative = growth inhibition: at 46.2 µM (top of the series) unless noted; further: nearly all actives have a fitted effect of over 55% in size
In short: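 Chicken DT40 Tdp1-/- cells stably complemented with human TDP1 were seeded at 400 cells/well with DMSO in place of 20 nM camptothecin. After compound pinning, cells grew at least 48 hr at 37 °C; viability read by CellTiter-Glo luminescence.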
On the % scale 0 is the no-effect control and ±100 the full control effect; potency means the concentration at half of the fitted maximal effect; tags describe the fitted curve by direction and shape.

SMILES	Potency	activity change, negative = growth inhibition
CCSc1nc2cc(S(=O)(=O)N3CCOCC3)ccc2o1	inconclusive [inhibitor, partial curve]	
CCCn1c(C)cc(C(=O)COC(=O)c2cc(=O)[nH]c3ccccc23)c1C	inconclusive [inhibitor, single point]	
COc1ccc(C2NC(=O)C(C#N)=C(S)N2c2ccccc2)cc1OC (stereo not given)		inconclusive: -36.2% [inhibitor]
CCOc1ccc(Cl)cc1-c1cc(C(=O)NCc2cc(C(F)(F)F)cc(C(F)(F)F)c2)[nH]n1	inconclusive [inhibitor, single point]	
Cc1ccccc1NC(=S)N(CCCN1CCC(C)CC1)Cc1ccco1	inconclusive [inhibitor, single point]	
CSc1ccc(Cn2c(C)c(C(=O)NCc3cccc(C)c3)sc2=O)cc1	inconclusive [inhibitor, single point]	
Cc1ccc(-c2nc(N3CCCC(C)C3)c3ccccc3n2)cc1 (stereo not given)	inconclusive [inhibitor, single point]	
CCOC(=O)c1cc(OC)c2cccc(CN3CCC(C)(C(=O)NCCOC)C3)c2c1 (stereo not given)	inconclusive [inhibitor, single point]	
COc1cc(/C=c2\s/c(=C\C(=O)C(C)(C)C)[nH]c2=O)cc(OC)c1OC	inconclusive [inhibitor, single point]	
Cc1cc(NC(=O)CSC2=Nc3ccccc3C3=NC(Cc4ccccc4)C(=O)N23)n[nH]1 (stereo not given)	inactive	
CCN1CCN(c2ccc(NC(=O)COc3ccc([N+](=O)[O-])cc3)cc2)CC1	inconclusive [inhibitor, partial curve]	
COC1C/C(=N\O)C2OC(c3ccccc3)OCC2O1 (stereo not given)	inconclusive [inhibitor, single point]	
COc1ccc(NC(=O)C(c2ccncc2)n2c(=O)c(-c3ccccc3)nc3ccccc32)cc1 (stereo not given)	inconclusive [inhibitor, single point]	
CCC(C)NC(=O)c1cc(-c2ccc3c(c2)OCO3)on1 (stereo not given)	inconclusive [inhibitor, partial curve]	
COc1ccc(CCNCc2ccc3c(c2)n(C)c(=O)n3C)cc1OC	inconclusive [inhibitor, single point]	
CC(C)(CO)NC(=O)c1ccc2c(c1)C(=O)c1ccccc1-2	active: 18.4 µM	
c1ccc2[nH]c(CSc3nc4ccccc4o3)nc2c1	inconclusive [inhibitor, single point]	
O=C(c1ccc(Cl)c(S(=O)(=O)N2CCCCCC2)c1)N1CCN(c2ccccn2)CC1	inconclusive [inhibitor, single point]	
CC(C)CC(=O)Nc1nnc(CSCc2ccc(F)cc2)s1		inconclusive: -32.3% [inhibitor]
Cc1ccc(CN2CCCn3nc(C(=O)NCCc4ccccc4Cl)cc3C2=O)cc1	active: 16.4 µM	
Cc1cccc(N2CCN(C(=O)c3cnn4c(C(F)F)cc(-c5ccccc5)nc34)CC2)c1C	inconclusive [inhibitor, single point]	
C=CCSc1nc2sc3c(c2c(=O)[nH]1)CC(C)(CC)OC3 (stereo not given)	inconclusive [inhibitor, single point]	
COc1cccc(CNC(=O)C2CCCN(c3nc4ccccc4n4cccc34)C2)c1 (stereo not given)	active: 14.6 µM	
Cc1ccc(-n2c(N)c(-c3nc4ccccc4n3C)sc2=S)cc1	inconclusive [inhibitor, partial curve]	

SMILES	Potency	activity change, negative = growth inhibition
Cc1ccc(C(=O)Nc2cccc(C(=O)OCc3cc(=O)n4nc(C5CC5)sc4n3)c2)cc1	inactive	
COc1cccc(CN2CCC(C(=O)N3CCN(Cc4ccc5c(c4)OCO5)CC3)CC2)c1OC	inconclusive [inhibitor, partial curve]	
CCCn1c2ccc(F)cc2c2nnc(SCCN(CC)CC)nc21	inconclusive [inhibitor, single point]	
O=C(OCc1ccccc1)N1CCC2CC1c1cc(-c3ccc4c(c3)OCO4)ccc12 (stereo not given)	inconclusive [inhibitor, single point]	
COc1cc(NC(=O)Cn2c(-c3cncs3)nc3ccccc32)cc(OC)c1OC	inactive	
CCOc1ccccc1OCCCC(=O)Nc1cc(S(=O)(=O)N2CCCCC2)ccc1C	inconclusive [inhibitor, single point]	
CN(C)CCCN(Cc1cc2cc3c(cc2[nH]c1=O)OCCO3)C(=O)NC1CCCCC1	inactive	
FC(F)(F)c1ccccc1Cc1c(-c2ccco2)nc2ccc(Br)cn12	inconclusive [inhibitor, single point]	
Cc1ccc(CNc2oc(C)nc2C#N)cc1	inactive	
Clc1ccc(Nc2c(-c3ccccc3Cl)nc3ccc(Cl)cn23)cc1	active: 25.9 µM	
CN1CCC(=NNc2ccc(S(=O)(=O)N3CCOCC3)cc2[N+](=O)[O-])CC1	inconclusive [inhibitor, full curve]	
O=C1CCCN1CCCNc1nc2c(S(=O)(=O)c3ccccc3)nnn2c2ccc(Cl)cc12	inconclusive [inhibitor, single point]	
COc1ccc(C)cc1NC(=O)c1cc(S(=O)(=O)N2CCN(c3cccc(C)c3C)CC2)ccc1F	inactive	
Cc1ccnc(NC(=O)CSc2cc(=O)n(C)c3ccccc23)c1	inconclusive [inhibitor, single point]	
CS(=O)(=O)Nc1ccccc1C(=O)NCCSCc1ccccc1	inconclusive [inhibitor, single point]	
COCC(C)Nc1ncnc2c1cnn2-c1ccc(C)c(C)c1 (stereo not given)	inconclusive [inhibitor, single point]	
CCOC(=O)C1(CCC(=O)OCc2ccccc2)CCCCC1=O (stereo not given)	inactive	
C=CCNC(=O)CN(c1ccccc1OCC)S(=O)(=O)c1ccc(C)cc1	inconclusive [inhibitor, single point]	
CCCOc1ccc(CSc2ncn[nH]2)cc1	active: 5.8 µM	
Cn1c(-c2cccc([N+](=O)[O-])c2)cnc1NCc1cccc(F)c1	active: 20.6 µM	
Cc1cc(C(=O)O/N=C(\N)c2ccc(C(C)(C)C)cc2)no1	inactive	
O=C(COc1ccccc1Cl)Nc1ccc(CN2CCCCC2)cc1	inconclusive [inhibitor, single point]	
O=C(CNC(=O)c1cccs1)c1ccc(F)cc1	inactive	
CC1(C)CC(=O)C(C2=NC3(CCCCC3)Cc3ccccc32)=C(O)C1	inactive	

SMILES	Potency	activity change, negative = growth inhibition
Cc1ccccc1CSc1nccn1-c1ccccc1	inconclusive [inhibitor, partial curve, poor fit]	
CCCOc1ccc(C2CC(=O)Nc3c2c(=O)n(C)c(=O)n3C)cc1OC (stereo not given)	inactive	
O=C(CN(C(=O)c1csnn1)c1cccc2ccccc12)NCc1ccc(F)cc1		inconclusive: -30.3% [inhibitor]
CC(=O)C1=C(C)N(Cc2ccccc2)C(=O)N[C@H]1c1cccc(C(F)(F)F)c1	inconclusive [inhibitor, single point]	
CC(C(=O)Nc1ccc([N+](=O)[O-])cc1Cl)N1CCN(S(=O)(=O)c2cccs2)CC1 (stereo not given)	inconclusive [inhibitor, single point]	
OCC(S)CS (stereo not given)	active: 16.8 µM	
CCOC(=O)c1cc(CC)sc1NC(=O)c1ccc(N2CCOCC2)c([N+](=O)[O-])c1	inactive	
O=C(c1cc(C2CC2)nn1-c1ccccc1)N1CCN(Cc2ccc(Cl)cc2)CC1	active: 11.6 µM	
COc1ccccc1CNS(=O)(=O)c1ccc2c(c1)CCCN2C(C)=O	inactive	
CCOC(=O)[C@]12CCC=C1N(Cc1ccccc1)C(=O)[C@H](CC(=O)NCCc1ccccc1OC)C2	inconclusive [inhibitor, single point]	
Cc1c(S(=O)(=O)c2ccccn2)c(N)n(Cc2ccccc2)c1C	inconclusive [inhibitor, single point]	
COc1ccccc1NC(=O)NC1(C)CCS(=O)(=O)C1 (stereo not given)	inactive	
Cc1cccc(C(CC(=O)NCCc2ccccc2)c2ccccc2)c1O (stereo not given)	inconclusive [inhibitor, single point]	
CC(C)(C)C(=O)Nc1cc(S(=O)(=O)N2CCCCC2)ccc1N1CCCCC1	active: 23.1 µM	
Cc1ccc(NC(=O)C2CCCN2C(=O)OCc2ccccc2)cc1F (stereo not given)	inconclusive [inhibitor, single point]	
Cc1ccc(-c2ccc(=O)n(CC(=O)N3CCN(c4cc(Cl)ccc4C)CC3)n2)cc1	inconclusive [inhibitor, single point]	
Cc1ccccc1NC(=S)C1=C(O)c2sccc2N(C)S1(=O)=O	inconclusive [inhibitor, single point]	
Cc1cccc(C(=O)Oc2c(Sc3ccccc3)c(C)nn2C(C)(C)C)c1	active: 23.1 µM	
CCN(CC)S(=O)(=O)c1cc(NC(=O)Cc2ccsc2)ccc1C	inconclusive [inhibitor, single point]	
Cc1ccc(S(=O)(=O)N2C[C@H]3C(=O)C[C@@H](c4ccccc4F)N(S(=O)(=O)c4ccc(C)cc4)[C@H]3C[C@H]2c2cccc3ccccc23)cc1	inactive	
COc1ccc(Nc2c3c(nc4nncn24)CCC3)cc1OC	inconclusive [inhibitor, single point]	
COc1cccc(-c2cc(C(=O)Nc3cccnc3)c3ccccc3n2)c1	inconclusive [inhibitor, single point]	
